Reference: PubChem BioAssay AID686978 (National Center for Advancing Translational Sciences (NCATS), 2013)
Out of some 420,000 compounds screened, about 64,000 (15%) were called active. The shares of active, inactive and inconclusive entries below differ from those in the screen. The call rests on the fitted dose curve; in most records, active means well fitted inhibition curve with a large enough effect; inconclusive means small, poorly fitted or top-dose-only effect; inactive means flat fitted curve, though single readings scatter. No potency is given beside an inconclusive call; the fits are too rough.

Test: qHTS for Inhibitors of human tyrosyl-DNA phosphodiesterase 1 (TDP1): qHTS in cells in absence of CPT; further: nearly all actives have a fitted effect of over 55% in size
Conditions: DT40 Tdp1-/- hTDP1 cells, no CPT, ATP luminescence, 48 h; activity change, negative = growth inhibition: at 46.2 µM (top of the series) unless noted
In short: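 Stably hTDP1-transfected Tdp1-null chicken DT40 cells were treated with library compounds minus camptothecin and grown for at least 48 hr at 37 °C, after which cellular ATP was quantified by luminescence.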
On the % scale 0 is the no-effect control and ±100 the full control effect; potency means the concentration at half of the fitted maximal effect; tags describe the fitted curve by direction and shape.

SMILES	Potency	activity change, negative = growth inhibition
COCCNCCCCSc1ccc(Cl)cc1	active: 18.4 µM	
COc1ccc(CN2CCNC(=O)C2CC(=O)NCCCC2CCCC2)c(C)c1C (centres undefined)	inconclusive [inhibitor, single point]	
S=C(NCc1ccc2[nH]c3c(c2c1)CCCC3)Nc1ccccc1Cl	inconclusive [inhibitor, single point]	
CCCc1cc2c(cc1NC(=O)c1ccccc1F)OCO2		inconclusive: -36.2% [inhibitor]
Cc1ccc(-c2cc(C(=O)N/N=C/C=C/c3ccccc3)n[nH]2)s1	inconclusive [inhibitor, single point]	
CC(C)NC(=O)NC(=O)COC(=O)/C=C/c1ccccc1[N+](=O)[O-]		inactive: -1.69%
O=C(N/N=C/C(Cl)=C/c1ccccc1)c1ccccn1	inconclusive [inhibitor, single point]	
CCN(CC)C(=O)C1CCCN(c2ccc([N+](=O)[O-])cc2/C=N/NC(=O)c2cccc(Br)c2)C1 (centres undefined)	inconclusive [inhibitor, single point]	
Cc1ccc(S(=O)(=O)c2ccc(Cl)cc2)cc1S(=O)(=O)NC(C(=O)O)C(C)C (centres undefined)		inactive: -8.65%
COc1ccccc1N1CCN(C(=O)c2cc3c(s2)CCCCC3)CC1	inconclusive [inhibitor, single point]	
Cc1cc(S(=O)(=O)N(Cc2ccc(C(C)(C)C)cc2)Cc2cccs2)ccc1-n1cnnn1	inconclusive [inhibitor, single point]	
Cc1ccc(S(=O)(=O)N(C(=O)c2ccncc2)c2ccc(OC(=O)c3ccncc3)cc2)cc1	inconclusive [inhibitor, single point]	
COc1ccc(C(C(=O)NCc2ccc(F)cc2)N(Cc2cccnc2)C(=O)c2snc(C(N)=O)c2N)cc1 (centres undefined)	inconclusive [inhibitor, single point]	
COCCN(C)C(=O)c1cnn(-c2ncc3c(n2)-c2ccccc2CC3)c1C	inconclusive [inhibitor, single point]	
CCCCN(C)Cc1cc(=O)oc2cc3c(cc12)CCCC3	inconclusive [inhibitor, single point]	
O=C(Cc1ccc(S(=O)(=O)N2CCOCC2)s1)Nc1cc(C(F)(F)F)ccc1N1CCCC1	active: 20.6 µM	
CC1(C)CC(=NOC(=O)c2ccccc2)CC(C)(C)N1		inactive: 1.27%
CC(C)CN1CC[C@@]2(CCCN(C(=O)c3cccc(F)c3)C2)C1		inactive: -2.23%
O=C(CCc1ccccc1Cl)N1CCN(S(=O)(=O)c2ccccc2)CC1		inactive: -26.6%
COc1cccc(C=NNC(=O)C(C)SC(C)C(=O)NN=Cc2cccc(OC)c2)c1 (centres undefined)	inconclusive [inhibitor, single point]	
CC/C(=N\Nc1ccccc1[N+](=O)[O-])c1ccc(O)cc1		inactive: -9.96%
O=C(Nc1cnccn1)C1c2ccccc2Oc2ccccc21		inactive: -1.31%

SMILES	Potency	activity change, negative = growth inhibition
COc1ccc(-c2nc3ccc(Br)cn3c2Cc2ccsc2)cc1OC	inconclusive [inhibitor, single point]	
Cc1ccc(/C=C/C(=O)NCc2ccncc2)cc1		inconclusive: -30.8% [inhibitor]
COc1cc(NC(=O)CCN2CCN(C/C=C/c3ccccc3)CC2)cc(OC)c1	active: 20.6 µM	
Cc1cccc(OCC(=O)NCC2(N3CCN(C)CC3)CCCCC2)c1C	inconclusive [inhibitor, single point]	
CCSc1nnc(-c2cccc(S(=O)(=O)N(C)C)c2)n1-c1cc(OC)ccc1OC	inconclusive [inhibitor, single point]	
O=c1oc(-c2ccco2)nc2ccccc12	inconclusive [inhibitor, partial curve, poor fit]	
CCCCc1nnc(NC(=O)CSc2nc(O)c(-c3ccccc3)c(=O)[nH]2)s1		inactive: -11.8%
Cc1nnc(NC(=O)CCS(=O)(=O)Cc2ccccc2)s1	inconclusive [inhibitor, single point]	
COc1cc(NC(=O)CSc2nc3[nH]ncc3c(=O)n2-c2ccc(Cl)cc2)cc(OC)c1	inconclusive [inhibitor, partial curve, poor fit]	
CCCCCn1c(CNC(=O)CCC)nc2ccccc21	inconclusive [inhibitor, single point]	
COc1ccc(OCc2ccc(-c3nc(C#N)c(N4CCC(C)CC4)o3)o2)cc1	active: 23.1 µM	
C=CCNC(=S)NNC(=O)c1ccc(Br)cc1	inconclusive [inhibitor, single point]	
COc1cc(C=O)ccc1OCCOc1ccccc1[N+](=O)[O-]	inconclusive [inhibitor, single point]	
NCCNc1cc(N2CCCC2)ccc1[N+](=O)[O-]	inconclusive [inhibitor, partial curve, poor fit]	
Cc1ccc(C)c(N2C(=N)S/C(=C\c3ccc(-c4ccccc4C(=O)O)o3)C2=O)c1		inactive: -2.59%
O=C(O)c1ccc(-n2ncc3c2/C(=C\c2cccc([N+](=O)[O-])c2)CC3)cc1	inconclusive [inhibitor, partial curve]	
CC#CC[N+](C)(CC#CC)CC(=O)c1ccccc1	inconclusive [inhibitor, partial curve, poor fit]	
CN(c1ccc(-c2csc(NC(=O)CCCc3nc4ccccc4c(=O)[nH]3)n2)cc1)S(C)(=O)=O	active: 8.2 µM	
CCOc1ccc(NC(=S)N(CCN2CCOCC2)Cc2cc3cc4c(cc3[nH]c2=O)OCO4)cc1		inconclusive: -31.2% [inhibitor]
C=C(C)Cn1c(SCC(=O)Nc2cc(C)ccc2C)nc2sc3c(c2c1=O)CCCC3	inconclusive [inhibitor, partial curve]	
CN(C)Cc1ccccc1-c1ccc2ncnc(NC3CCNCC3)c2c1	inconclusive [inhibitor, single point]	
CCc1ccc(S(=O)(=O)c2nnn(-c3ccc(F)cc3)c2N)cc1	active: 16.4 µM	
